We go through one molecule from article PMC4094278, “The Dictyostelium discoideum RACK1 orthologue has roles in growth and development” (Cell Communication and Signaling : CCS, 2014).

What all share (assay): two-hybrid; yeast Y190; DdRACK1 in pACT2 (GAL4 AD), G protein subunits in pAS2-1 (GAL4 BD); growth on SD/-Leu/-Trp/-His/+3AT plates and colony-lift β-galactosidase assay read at 1 to 6 h and after 24 h
The target of test [1] is T1, D. discoideum G protein β-subunit fused to the GAL4 DNA-binding domain (pAS2-1) (D. discoideum) (UniProt P36408).
T1 sequence: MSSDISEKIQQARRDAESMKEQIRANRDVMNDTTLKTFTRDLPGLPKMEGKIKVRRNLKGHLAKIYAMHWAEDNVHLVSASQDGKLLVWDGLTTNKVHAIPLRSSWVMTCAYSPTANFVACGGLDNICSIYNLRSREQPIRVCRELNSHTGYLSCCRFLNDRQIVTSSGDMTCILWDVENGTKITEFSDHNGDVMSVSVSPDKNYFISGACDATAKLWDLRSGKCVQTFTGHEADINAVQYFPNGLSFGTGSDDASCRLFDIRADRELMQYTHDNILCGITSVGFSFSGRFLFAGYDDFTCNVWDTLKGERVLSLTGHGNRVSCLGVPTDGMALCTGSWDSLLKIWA

The target in test [2] is T2, D. discoideum G protein α5-subunit fused to the GAL4 DNA-binding domain (pAS2-1) (D. discoideum) (UniProt P34043).
T2 sequence: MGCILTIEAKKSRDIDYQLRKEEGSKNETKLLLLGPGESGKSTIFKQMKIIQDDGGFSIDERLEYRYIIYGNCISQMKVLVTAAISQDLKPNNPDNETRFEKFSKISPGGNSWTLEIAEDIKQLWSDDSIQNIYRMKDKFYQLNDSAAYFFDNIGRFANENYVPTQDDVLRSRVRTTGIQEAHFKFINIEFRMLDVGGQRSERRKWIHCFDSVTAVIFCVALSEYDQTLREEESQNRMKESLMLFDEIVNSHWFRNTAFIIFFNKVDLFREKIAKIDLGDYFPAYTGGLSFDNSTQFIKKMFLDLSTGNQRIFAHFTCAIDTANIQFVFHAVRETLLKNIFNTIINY

Test [3] deals with T3, D. discoideum G protein α9-subunit fused to the GAL4 DNA-binding domain (pAS2-1) (D. discoideum) (UniProt Q54R41).
T3 sequence: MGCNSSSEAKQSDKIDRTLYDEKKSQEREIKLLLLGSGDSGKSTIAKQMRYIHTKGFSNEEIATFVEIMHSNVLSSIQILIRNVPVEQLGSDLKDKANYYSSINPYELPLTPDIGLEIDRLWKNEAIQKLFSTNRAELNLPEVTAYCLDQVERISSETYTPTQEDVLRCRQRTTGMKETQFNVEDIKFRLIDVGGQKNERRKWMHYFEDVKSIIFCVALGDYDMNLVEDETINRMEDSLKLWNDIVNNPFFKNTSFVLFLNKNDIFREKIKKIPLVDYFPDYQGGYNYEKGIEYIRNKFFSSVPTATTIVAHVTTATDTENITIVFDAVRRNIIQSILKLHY

Test [4] addresses T4, D. discoideum G protein γ-subunit fused to the GAL4 DNA-binding domain (pAS2-1) (D. discoideum) (UniProt Q95ZG8).
T4 sequence: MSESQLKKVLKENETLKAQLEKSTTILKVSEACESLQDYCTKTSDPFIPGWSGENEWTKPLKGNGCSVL

For test [5], the target named is T5, D. discoideum G protein α4-subunit fused to the GAL4 DNA-binding domain (pAS2-1) (D. discoideum) (UniProt P34042).
T5 sequence: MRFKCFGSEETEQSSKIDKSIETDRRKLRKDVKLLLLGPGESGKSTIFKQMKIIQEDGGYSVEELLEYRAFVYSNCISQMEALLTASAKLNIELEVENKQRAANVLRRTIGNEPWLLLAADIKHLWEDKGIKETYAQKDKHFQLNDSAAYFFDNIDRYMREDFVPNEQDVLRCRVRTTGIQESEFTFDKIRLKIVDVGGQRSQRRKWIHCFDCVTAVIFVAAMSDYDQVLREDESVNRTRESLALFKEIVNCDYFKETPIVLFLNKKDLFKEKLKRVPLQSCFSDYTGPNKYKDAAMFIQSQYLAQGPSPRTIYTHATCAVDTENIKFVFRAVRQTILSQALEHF

In test [6] the target is T6, D. discoideum G protein α12-subunit fused to the GAL4 DNA-binding domain (pAS2-1) (D. discoideum) (UniProt Q54VG1).
T6 sequence: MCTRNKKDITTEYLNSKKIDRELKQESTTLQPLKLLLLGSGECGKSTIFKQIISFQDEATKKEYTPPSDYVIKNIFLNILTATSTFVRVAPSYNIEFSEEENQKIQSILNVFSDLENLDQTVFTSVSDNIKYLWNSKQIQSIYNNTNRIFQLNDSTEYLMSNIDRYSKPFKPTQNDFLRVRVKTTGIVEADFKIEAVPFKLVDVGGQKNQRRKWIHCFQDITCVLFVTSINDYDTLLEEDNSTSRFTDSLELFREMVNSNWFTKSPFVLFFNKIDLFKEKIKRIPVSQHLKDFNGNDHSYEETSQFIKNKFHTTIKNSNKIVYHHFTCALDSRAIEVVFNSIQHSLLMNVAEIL

These are yes or no findings as the source states them, for the method shown. Some entries that bind do so weakly or less than the wild type. Where a sequence is shown, tags or fusion partners need not be part of it.

B1: DdRACK1 fused to the GAL4 activation domain (pACT2) (protein, UniProt P46800 1-329)
chain: MEQQKAPQVTYLEVGSLVGHNGFVTSIAVSPENPDTIISSSRDKTVMVWQLTPTDATSPGKAHRSLKGHSHFVQDVVISHDGQFALSGSWDNTLRLWDITKGVSTRLFKGHTQDVMSVAFSSDNRQIISGSRDATIKVWNTLGECKFTLEGPEAHQDWVSCIRFSPNTPTIVSGSWDNKVKIWDIKSFKCNHTLTDHTGYVNTVTISPDGSLCASGGKDTFACLWELSSGKPLYKLEARNTINALAFSPNKYWLSAATDDKIIIWDLLTKQVLAEIVPEVKEQAFDSKKKKESKPKAPACLSLAWSADGSVLYAGYNDGLIRVYKSSSQ
Consider B1, for which the binding entry is “binds” in test [1]; “no binding” in test [2]; “no binding” in test [3]; “binds” in test [4]; “binds weakly” in test [5]; “no binding” in test [6].
